Assay results taken from article PMC10668032.
The list shows a part of the results. At the low end of the ranking, values are background and their order means little.

Target: SIX1-Q177R homeodomain (UniProt Q15475)
Assay: universal protein binding microarray
Conditions: Universal all-10-mer PBM (8x60K, AMADID 030236), 300 nM GST-tagged protein, Alexa Fluor 488 anti-GST; buffer, salt, pH and temperature not stated; high values mean tight binding; most listed sequences are background and not binding sites; double strand, one strand shown

Sequence	binding signal
ATGTCAAC	-0.019 E-score
ACGTACCA	-0.187 E-score
AGAAATCA	-0.235 E-score
ACGGCGAA	-0.0873 E-score
CAACGTAG	-0.0281 E-score
ATACAACG	-0.206 E-score
CCTGCATA	0.0471 E-score
CAGACGTC	-0.145 E-score
AGAGGGAC	-0.124 E-score
TCACTCAA	-0.183 E-score
AGCCCTAG	-0.0605 E-score
GACTTCAA	-0.0487 E-score
CAATCAAC	-0.292 E-score
TCCATCGA	-0.114 E-score
CTAACAAG	-0.25 E-score
CTAAACCA	-0.0423 E-score
CCTTGTGA	0.0332 E-score
GGATCACC	0.203 E-score
AGCTACCA	-0.0585 E-score
GTCTTCAA	-0.192 E-score
ATATCTTG	-0.1 E-score
CGTTCGTC	-0.146 E-score

Sequence	binding signal
ACGAGCGT	0.0651 E-score
AGCGTAAT	-0.0257 E-score
GCCATCAC	-0.217 E-score
ATGTAATA	-0.115 E-score
CGCTTACA	0.196 E-score
GGCTCACA	-0.0043 E-score
GACTCGAC	0.0878 E-score
GAAGTTCA	-0.266 E-score
ATAGCTAA	-0.197 E-score
ATTGTGTA	0.151 E-score
CACGGAAC	0.238 E-score
AGATGACT	0.00729 E-score
AGGAGGTG	0.286 E-score
GGCGCCCA	-0.15 E-score
GTCGGCTA	-0.0612 E-score
TCCAGACA	0.078 E-score
CGCCCCCC	-0.00467 E-score
CACTTCCA	0.202 E-score
CCCGGTAG	0.0724 E-score
ACGTGTGG	0.218 E-score
GTGATCAA	0.0414 E-score
CCGAGCAG	-0.0678 E-score

Sequence	binding signal
GAAATATA	-0.0729 E-score
AGAGCACA	-0.0132 E-score
AGTACCAA	-0.0263 E-score
AGTGCTTC	-0.113 E-score
TAACCCAA	-0.017 E-score
AGTCTCCA	-0.0848 E-score
ACACTGAC	0.381 E-score
CGCTGAGC	-0.25 E-score
GAAGACCA	-0.174 E-score
CGTCCATA	-0.111 E-score
AACTATGC	-0.125 E-score
CGGTCCGA	-0.197 E-score
CATGTCAC	0.0812 E-score
GGGGCGGA	0.109 E-score
CCCGCGCC	0.154 E-score
ACAGGGCT	-0.0118 E-score
CCCCTATA	0.106 E-score
GCCCCGTA	-0.129 E-score
AGTCGCAT	-0.114 E-score
AGAAGAAC	-0.142 E-score
ACTTCGCT	-0.0234 E-score
GTCTTATA	0.0543 E-score

Sequence	binding signal
GGCATACA	0.0981 E-score
AGTCTGCA	-0.156 E-score
CAGCGGCA	-0.372 E-score
CTCCAGGC	0.0595 E-score
CGAAGTAA	-0.108 E-score
GCCAGAAC	0.00273 E-score
ATTCTTAA	-0.0926 E-score
AACCTAAA	-0.143 E-score
TATCTAGA	0.0317 E-score
TCTTTTCA	-0.193 E-score
CCACCTAA	0.0742 E-score
CACCAAGG	0.265 E-score
CACGGGTC	0.253 E-score
TGTCACAA	0.129 E-score
ACCTGAAT	0.0132 E-score
CCCAGGGC	-0.138 E-score
AATCGACA	0.173 E-score
AGTAGTCG	-0.0658 E-score
AGGTGTAA	0.463 E-score
GACCGCGC	-0.101 E-score
